Measurements: PubChem BioAssay (NCI)
Values joined by “and” are separate entries in the source; they are usually repeats but may differ in a detail not shown here. Identical values can stand only once.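 Each compound was tested at five concentrations against cells in 96-well plates for 48 hours. The concentration for 50% growth inhibition is given as GI50. The concentration for full growth arrest is given as TGI.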

System: NCI-H322M lung
Assay: DTP human tumour cell line panel, 48 h

Row | Compound | TGI [µM] | GI50
1 | C=CCN(N=O)C(=O)N(CCC)CCCC(NC(C)=O)C(=O)NCc1ccccc1 (stereo not given) | > 100 | 
2 | O=S(=O)(O)c1ccc2cc(N=Nc3cc(S(=O)(=O)O)c4cccnc4c3O)ccc2c1 | > 100 | 
3 | Cn1cnc([N+](=O)[O-])c1Sc1ncnc2nc[nH]c12 | > 100 | 2.69 µM and 4.84 µM
4 | c1ccc(N=NNNc2ccc(-c3nc4ccccc4[nH]3)cc2)cc1 | > 100 | 
5 | CCCCc1cc(O)ccc1O | > 100 | > 100 µM
6 | CCOC(=O)/C=C/c1ccc(C(=O)OCC)[nH]1 | > 100 | 4.1 µM
7 | N#CC1C(N)=NNC1c1ccc(-c2ccc(-c3nc4ccccc4o3)cc2)o1 (stereo not given) | 69.6 | 19.1 µM
8 | O=Nc1c2cccnc2n2nnc3ccc(Cl)cc3c12 | 35.3 | 12 µM
9 | CCOC(=O)/C=C(/C(=O)OCC)n1cc(C)c(=O)n(Cc2cnnn2CCCCOC(C)=O)c1=O | > 100 | 
10 | CC[C@H]1C=CCC[C@@]2(C[C@@H]3CC[C@@H]4[C@H](C(=O)OCCCCCCCCCCCCCCCC(=O)N(CCCN)C[C@@H](O)CCN)[C@]5(CCC[C@@H](C)O5)NC(=[N+]34)N2)O1 | 2.54 | 
11 | CC(=O)O[C@H]1/C(=C/c2ccc(N(C)C)cc2)C[C@H]2[C@@H]3CC=C4C[C@@H](N5CCCC5)CC[C@]4(C)[C@H]3CC[C@]12C | > 100 | 
12 | CC(NCCS(=O)(=O)O)C(=O)O (stereo not given) | > 100 | 
13 | NC(=O)c1ccccc1NC(=O)C(=O)C(c1cnc2ccc([N+](=O)[O-])cc2n1)[N+](=O)[O-] (stereo not given) | > 100 | 
14 | CC1(C)C2CCC1C(=O)C(C=O)C2 (stereo not given) | > 100 | 
15 | NC(N)=N/N=C/c1c(-c2cc(Cl)sc2Cl)nc2n1CCS2 | 15.1 | 8.07 µM
16 | O=C1OCC2=Nc3cccc4cccc(c34)N12 | > 100 | 
17 | CN(C)c1ccc(/C=N/NC2=N/C(=C\c3ccco3)C(=O)N2)cc1 | > 100 | 
18 | O=C1/C(=C\c2cccs2)Oc2ccccc21 | > 100 | 
19 | COc1ccc(/C=[N+](\[O-])[C@H](COCc2ccccc2)c2ccccc2)cc1 | > 100 | 
